From article PMC4336329 (PLoS ONE, 2015)
The whole screen tested about 310,000 compounds, of which about 2,200 (0.71%) showed an effect of 50% or more. The effect is printed as a negative number. This is one part of the list.

Each compound was assayed against human ether-à-go-go-related gene (hERG) potassium channel (human, UniProt Q12809) (assay: primary screen, population patch clamp on CHO cells stably expressing hERG).
Chain of human ether-à-go-go-related gene (hERG) potassium channel (Q12809 whole entry, looked up): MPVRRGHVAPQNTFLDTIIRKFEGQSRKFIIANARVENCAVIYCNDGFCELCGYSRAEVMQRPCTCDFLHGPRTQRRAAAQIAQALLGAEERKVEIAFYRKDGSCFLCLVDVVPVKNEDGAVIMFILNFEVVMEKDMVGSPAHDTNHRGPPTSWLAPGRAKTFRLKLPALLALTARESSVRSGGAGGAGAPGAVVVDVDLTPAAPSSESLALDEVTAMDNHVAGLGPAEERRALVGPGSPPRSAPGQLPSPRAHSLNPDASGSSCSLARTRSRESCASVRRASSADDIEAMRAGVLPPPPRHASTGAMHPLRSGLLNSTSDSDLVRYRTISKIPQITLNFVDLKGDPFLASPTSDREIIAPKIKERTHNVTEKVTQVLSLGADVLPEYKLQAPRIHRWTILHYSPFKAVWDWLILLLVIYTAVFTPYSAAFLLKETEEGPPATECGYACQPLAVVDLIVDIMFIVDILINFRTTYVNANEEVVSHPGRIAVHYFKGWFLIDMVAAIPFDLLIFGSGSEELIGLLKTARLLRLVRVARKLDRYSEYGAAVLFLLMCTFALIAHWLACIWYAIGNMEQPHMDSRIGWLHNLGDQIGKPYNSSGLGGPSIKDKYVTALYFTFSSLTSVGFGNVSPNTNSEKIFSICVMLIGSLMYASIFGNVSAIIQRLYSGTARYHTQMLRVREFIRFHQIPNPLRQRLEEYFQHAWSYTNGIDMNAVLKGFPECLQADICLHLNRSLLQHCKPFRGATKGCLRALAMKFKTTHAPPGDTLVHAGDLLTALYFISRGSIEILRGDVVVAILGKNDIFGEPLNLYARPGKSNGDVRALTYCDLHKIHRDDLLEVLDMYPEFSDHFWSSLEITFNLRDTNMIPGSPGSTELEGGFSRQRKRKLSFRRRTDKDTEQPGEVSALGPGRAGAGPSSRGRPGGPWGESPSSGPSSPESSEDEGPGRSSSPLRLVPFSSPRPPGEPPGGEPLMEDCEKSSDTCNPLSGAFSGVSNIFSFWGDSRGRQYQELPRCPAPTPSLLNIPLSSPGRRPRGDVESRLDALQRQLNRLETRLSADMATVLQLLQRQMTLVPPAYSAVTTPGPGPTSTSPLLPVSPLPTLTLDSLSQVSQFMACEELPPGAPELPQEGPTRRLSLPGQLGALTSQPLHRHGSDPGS

Row | SMILES | hERG current change (%, negative = inhibition) at 1uM [%]
1 | O=C(CCC(=O)c1ccccc1)Nc1ccccc1OC(F)F | 12.4
2 | O=C1Nc2ccccc2C(O)(C(=O)NCc2ccco2)N1c1ccc(Cl)cc1 (stereo not shown) | 3.8
3 | CC(=O)/C=C(\C)Nc1ccccc1O | 8.64
4 | O=S(=O)(Oc1ccc(Cl)cc1)c1cccc2cccnc12 | 6.15
5 | COCCCn1c(C)csc1=Nc1cccnc1 | 17
6 | O=C(NCC(=O)N1CCCCC1)c1sc2ccccc2c1Cl | 0.939
7 | CCn1cc(C(=O)OCC(=O)N(C)C2CCS(=O)(=O)C2)c(=O)c2ccc(C)nc21 (stereo not shown) | 2.89
8 | O=C(COC(=O)c1ccccc1Sc1ccc(C(F)(F)F)cc1[N+](=O)[O-])NC(=O)NC1CCCC1 | 7.56
9 | CN(C)CCOC(C1CCCCC1)C1CCCCC1.Cl | 4.97
10 | COc1ccc(N(CC(=O)N2CCc3ccccc32)S(=O)(=O)c2c(C)nn(C)c2C)cc1 | 9.12
11 | C=C(C)COc1ccc(-c2nc(N)ncc2Oc2ccc(OC)cc2)c(O)c1 | -5.45
12 | O=C(COC(=O)[C@@H]1CCCN1S(=O)(=O)c1ccccc1F)NCc1ccc2c(c1)OCO2 | 11
13 | CCOC(=O)c1[nH]c(=O)[nH]c1CSc1nc(C)cc(C)n1 | 6.36
14 | CN(C)S(=O)(=O)c1ccc(C(=O)OCC2COC(C)(C)O2)cc1 (stereo not shown) | 15.6
15 | Nn1c(SCc2ccccc2F)nnc1-c1ccccn1 | 5.37
16 | CCN(CC)c1ccc(C(=O)OCC(=O)N2CCCC2)cc1 | 8
17 | COc1ccc(CC2(CO)CCN(Cc3cnn(C)c3C)CC2)cc1 | 6.81
18 | CCC(C)(C)n1nnnc1C(c1cc2cc(OC)ccc2[nH]c1=O)N1CCc2ccccc21 (stereo not shown) | -2.65
19 | CCCCC1=CC2=C(c3ccco3)C(=O)C(C)(OC(=O)c3ccc(OC)cc3)C(=O)C2=CN1Cc1ccco1 (stereo not shown) | 3.63
20 | COc1ccc(N(C(C)=O)c2nc(C)cc(C)c2C#N)c(OC)c1 | 14
21 | Cc1ccccc1C(=O)Nc1ccccc1NC(=O)c1ccccc1C | 13.9
22 | O=C(Nc1cccn(Cc2c(Cl)cccc2Cl)c1=O)c1c(Cl)cccc1Cl | 0.712
23 | CC1CCCCC1n1c(-c2cccnc2)n[nH]c1=S (stereo not shown) | 7.49
24 | Cc1ccc2c(C(=O)CNc3nncs3)c(C)[nH]c2c1 | 13.6
25 | Cc1ccc(C(=O)NCCC(=O)NCc2ccco2)cc1 | 13.8
